Measurements published in the supplement of paper PMC4604168 (melanoma cell lines).
This is one part of the list. Many values rest on one well or one pass, so single values are uncertain.

Test system: WM3619
Assay: cell count relative to DMSO control; melanoma cells; higher = more viable cells
Conditions: library dose: standard library concentration; 72 h
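Note: cells treated in 1,536-well plates, then fixed and DAPI-stained, with nuclei counted from automated high-throughput microscope images.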

SMILES	cell count
Cc1cn(-c2cc(NC(=O)c3ccc(C)c(Nc4nccc(-c5cccnc5)n4)c3)cc(C(F)(F)F)c2)cn1 [nilotinib] + O=c1cc(-c2cccc3c2Sc2ccccc2S3)oc(N2CCOCC2)c1 [KU55933] (first compound 1 µM, partner dose 5 µM)	76.9%
COc1ccc(C2=N[C@@H](c3ccc(Cl)cc3)[C@@H](c3ccc(Cl)cc3)N2C(=O)N2CCNC(=O)C2)c(OC(C)C)c1 [Nutlin-3] + N#Cc1c(O)c2c(-c3ccc(-c4ccccc4O)cc3)csc2[nH]c1=O [A769662] (first compound 0.5 µM, partner dose 10 µM)	134%
Cc1cc(Nc2cc(N3CCN(C)CC3)nc(/C=C/c3ccccc3)n2)n[nH]1 + COc1ccc(COc2ccc(Cc3cnc(N)nc3N)cc2OC)cc1 [GW2580] (first compound 0.2 µM, partner dose 5 µM)	64.9%
Cc1cn(-c2cc(NC(=O)c3ccc(C)c(Nc4nccc(-c5cccnc5)n4)c3)cc(C(F)(F)F)c2)cn1 [nilotinib] + COc1ccc2c(c1)CCC1C2CCC2(C)C(NCCCCCCN3C(=O)C=CC3=O)CCC12 [U73122] (first compound 1 µM, partner dose 2 µM)	74.7%

Test system: WM451Lu
Assay: as above
Conditions: library dose: standard library concentration; 72 h

SMILES	cell count
Cc1cn(-c2cc(NC(=O)c3ccc(C)c(Nc4nccc(-c5cccnc5)n4)c3)cc(C(F)(F)F)c2)cn1 [nilotinib] + O=C(O)C(=O)Nc1sc2c(c1C(=O)O)CCNC2 [TCS401] (first compound 1 µM, partner dose 8.33333 µM)	98.1%
Cn1c(=O)n(-c2ccc(C(C)(C)C#N)cc2)c2c3cc(-c4cnc5ccccc5c4)ccc3ncc21 + CC(C)CCN1c2nc(Nc3cc(F)c(O)c(F)c3)ncc2N(C)C(=O)C1C [BID1870] (first compound 0.02 µM, partner dose 1 µM)	79.8%
CC(C)C[C@H](NC(=O)[C@H](Cc1ccccc1)NC(=O)c1cnccn1)B(O)O [Bortezomib] + O=c1cc(-c2cccc3c2Sc2ccccc2S3)oc(N2CCOCC2)c1 [KU55933] (first compound 0.005 µM, partner dose 5 µM)	33.8%
CC(C)C[C@H](NC(=O)[C@H](Cc1ccccc1)NC(=O)c1cnccn1)B(O)O [Bortezomib] + CCc1ccc(CCOc2ccc(CC3SC(=O)NC3=O)cc2)nc1 [pioglitazone] (first compound 0.005 µM, partner dose 10 µM)	24.8%
Cc1cc(Nc2cc(N3CCN(C)CC3)nc(/C=C/c3ccccc3)n2)n[nH]1 + COc1ccc2c(c1)CCC1C2CCC2(C)C(NCCCCCCN3C(=O)C=CC3=O)CCC12 [U73122] (first compound 0.2 µM, partner dose 2 µM)	91.9%
CC(C)C[C@H](NC(=O)[C@H](Cc1ccccc1)NC(=O)c1cnccn1)B(O)O [Bortezomib] + COc1ccc(COc2ccc(Cc3cnc(N)nc3N)cc2OC)cc1 [GW2580] (first compound 0.005 µM, partner dose 5 µM)	27%
COc1ccc(C2=N[C@@H](c3ccc(Cl)cc3)[C@@H](c3ccc(Cl)cc3)N2C(=O)N2CCNC(=O)C2)c(OC(C)C)c1 [Nutlin-3] + CC(C)CCN1c2nc(Nc3cc(F)c(O)c(F)c3)ncc2N(C)C(=O)C1C [BID1870] (first compound 0.5 µM, partner dose 1 µM)	90%
Cc1cn(-c2cc(NC(=O)c3ccc(C)c(Nc4nccc(-c5cccnc5)n4)c3)cc(C(F)(F)F)c2)cn1 [nilotinib] + C[C@]1(O)C[C@@H](c2nc(-c3ccc4ccc(-c5ccccc5)nc4c3)c3c(N)nccn32)C1 [OSI906] (first compound 1 µM, partner dose 2 µM)	82.2%
COc1ccc(C2=N[C@@H](c3ccc(Cl)cc3)[C@@H](c3ccc(Cl)cc3)N2C(=O)N2CCNC(=O)C2)c(OC(C)C)c1 [Nutlin-3] + COc1ccc2c(c1)CCC1C2CCC2(C)C(NCCCCCCN3C(=O)C=CC3=O)CCC12 [U73122] (first compound 0.5 µM, partner dose 2 µM)	88.1%
Cc1cc(Nc2cc(N3CCN(C)CC3)nc(/C=C/c3ccccc3)n2)n[nH]1 + O=S(=O)(c1ccccc1)N(CC(F)(F)F)c1ccc(C(O)(C(F)(F)F)C(F)(F)F)cc1 [T0901317] (first compound 0.2 µM, partner dose 7 µM)	93%
Cc1cc(Nc2cc(N3CCN(C)CC3)nc(/C=C/c3ccccc3)n2)n[nH]1 + O=C1NC(=O)/C(=C/c2ccc(-c3ccc(F)cc3O)o2)S1 [AS252424] (first compound 0.2 µM, partner dose 5 µM)	86.9%
Cc1cc(Nc2cc(N3CCN(C)CC3)nc(/C=C/c3ccccc3)n2)n[nH]1 + C[C@@H](Oc1cc(-c2cnn(C3CCNCC3)c2)cnc1N)c1c(Cl)ccc(F)c1Cl [Crizotinib] (first compound 0.2 µM, partner dose 1 µM)	58.9%
Cc1cn(-c2cc(NC(=O)c3ccc(C)c(Nc4nccc(-c5cccnc5)n4)c3)cc(C(F)(F)F)c2)cn1 [nilotinib] + CS(=O)(=O)CCNCc1ccc(-c2ccc3ncnc(Nc4ccc(OCc5cccc(F)c5)c(Cl)c4)c3c2)o1 [lapatinib] (first compound 1 µM, partner dose 4 µM)	93.1%
CC(C)C[C@H](NC(=O)[C@H](Cc1ccccc1)NC(=O)c1cnccn1)B(O)O [Bortezomib] + O=S(=O)(c1ccccc1)N(CC(F)(F)F)c1ccc(C(O)(C(F)(F)F)C(F)(F)F)cc1 [T0901317] (first compound 0.005 µM, partner dose 7 µM)	26.6%
Cc1cc(Nc2cc(N3CCN(C)CC3)nc(/C=C/c3ccccc3)n2)n[nH]1 + COc1ccc(-c2ccc3c(N4CCOCC4)nc(N4C[C@@H](C)O[C@@H](C)C4)nc3n2)cc1CO [KU0063794] (first compound 0.2 µM, partner dose 0.1 µM)	79.9%
Cn1c(=O)n(-c2ccc(C(C)(C)C#N)cc2)c2c3cc(-c4cnc5ccccc5c4)ccc3ncc21 + CS(=O)(=O)CCNCc1ccc(-c2ccc3ncnc(Nc4ccc(OCc5cccc(F)c5)c(Cl)c4)c3c2)o1 [lapatinib] (first compound 0.02 µM, partner dose 4 µM)	69.8%
COc1ccc(C2=N[C@@H](c3ccc(Cl)cc3)[C@@H](c3ccc(Cl)cc3)N2C(=O)N2CCNC(=O)C2)c(OC(C)C)c1 [Nutlin-3] + Oc1cc(-c2nc(-c3ccccc3)[nH]c2-c2ccncc2)ccc1Cl [L779450] (first compound 0.5 µM, partner dose 1 µM)	52%
Cc1cc(Nc2cc(N3CCN(C)CC3)nc(/C=C/c3ccccc3)n2)n[nH]1 + C[C@]1(c2nc3c(C(N)=O)cccc3[nH]2)CCCN1 [Veliparib] (first compound 0.2 µM, partner dose 7 µM)	75.9%
COc1ccc(C2=N[C@@H](c3ccc(Cl)cc3)[C@@H](c3ccc(Cl)cc3)N2C(=O)N2CCNC(=O)C2)c(OC(C)C)c1 [Nutlin-3] + Cc1cc([N+](=O)[O-])ccc1NS(=O)(=O)c1cc(Cl)ccc1Cl [FH535] (first compound 0.5 µM, partner dose 5 µM)	96%
CC(C)C[C@H](NC(=O)[C@H](Cc1ccccc1)NC(=O)c1cnccn1)B(O)O [Bortezomib] + C[C@@H](Oc1cc(-c2cnn(C3CCNCC3)c2)cnc1N)c1c(Cl)ccc(F)c1Cl [Crizotinib] (first compound 0.005 µM, partner dose 1 µM)	16.8%
Cc1cn(-c2cc(NC(=O)c3ccc(C)c(Nc4nccc(-c5cccnc5)n4)c3)cc(C(F)(F)F)c2)cn1 [nilotinib] + COc1cc(N2CCC(N3CCN(C)CC3)CC2)ccc1Nc1ncc(Cl)c(Nc2ccccc2S(=O)(=O)C(C)C)n1 [NVP-TAE684] (first compound 1 µM, partner dose 0.4 µM)	106%
Cc1cc(Nc2cc(N3CCN(C)CC3)nc(/C=C/c3ccccc3)n2)n[nH]1 + NC1(c2ccc(-c3nc4ccn5c(=O)[nH]nc5c4cc3-c3ccccc3)cc2)CCC1 [MK2206] (first compound 0.2 µM, partner dose 2 µM)	71.7%
Cc1cc(Nc2cc(N3CCN(C)CC3)nc(/C=C/c3ccccc3)n2)n[nH]1 + O=C(Nc1ccccc1)c1cc([N+](=O)[O-])ccc1Cl [GW9662] (first compound 0.2 µM, partner dose 10 µM)	76.3%
Cc1cc(Nc2cc(N3CCN(C)CC3)nc(/C=C/c3ccccc3)n2)n[nH]1 + Nc1nc(F)nc2c1ncn2[C@@H]1O[C@H](CO)[C@@H](O)[C@@H]1O [fludarabine] (first compound 0.2 µM, partner dose 1 µM)	76.9%
CC(C)C[C@H](NC(=O)[C@H](Cc1ccccc1)NC(=O)c1cnccn1)B(O)O [Bortezomib] + COc1ccc(-c2ccc3c(N4CCOCC4)nc(N4C[C@@H](C)O[C@@H](C)C4)nc3n2)cc1CO [KU0063794] (first compound 0.005 µM, partner dose 0.1 µM)	40.7%
Cc1cn(-c2cc(NC(=O)c3ccc(C)c(Nc4nccc(-c5cccnc5)n4)c3)cc(C(F)(F)F)c2)cn1 [nilotinib] + C[C@@H](N)c1ccc(C(=O)Nc2ccnc3[nH]ccc23)cc1 [RKI983] (first compound 1 µM, partner dose 2 µM)	67.1%
